Some of the results follow.
System: PfHDP1 homeodomain (GST-tagged)
Assay: gcPBM binding intensity (ln(normalized median fluorescence intensity)); higher = stronger DNA binding
Outline: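 After 1 h on an Agilent 4 × 180k array of primer-extended double-stranded 36-bp intergenic genomic probes and negative controls, bound GST-tagged P. falciparum DNA-binding domains were detected with Alexa488 anti-GST antibody and scanned at 488 nm. The domains had been expressed in E. coli, and binding took place in 1× PBS with 1% milk, 0.2 mg/ml BSA, 0.5% salmon testes DNA and 0.03% Triton X-100. Binding intensity is the highest Masliner-normalised natural-log median intensity across replicate spots of either probe orientation.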

Sequence | gcPBM binding intensity (ln)
ATATATAATAAACAGGTGCATTGTTTTATTTTGTAT | 8.8
TTTTTTTTAATTGTGATACGTATATTATTTAATGAT [CACACA_negctrl_site38] | 6.36
ACCAGTTCTTAATACAAATATGTACATATATATATA [GTGCAC_negctrl_site56] | 9.03
AGCAGGATTAAAAAAAGTACAAGAATTAATATTTAA [XGTACX_site3413] | 6.32
TATATCTATAATATTACACACATATATTTATATTTT [CACACA_site7595] | 6.59
AATTATTATCCCCTCACACACAAAAATAAAAAGAAT [CACACA_site2885] | 7.49
ATTTTTTATTGTTATAAAAAAAAAATTAAACAATTA [CACACA_negctrl_site1077] | 6.25
ATTATTTTATGAGACATAAAAAAAAAAAAAAAAAAA [CACACA_negctrl_site1067] | 6.18
AGATGAGAGATATATACACACAATAATACCTATTTA [CACACA_site6542] | 6.47
TTATAACTTTTCACAAGTACATATATATATGTATAA [XGTACX_site2306] | 6.66
TTTGGAAAGCGTGATTTTTGACAAACACAAAAAAAA [CACACA_negctrl_site651] | 5.94
ATATATATGTTTTTATGTACATATTTTTCTCCTTCA [XGTACX_site5899] | 6.7
TTTTTATTCCAGTATTCACACACGAATAACCACATA [CACACA_site1897] | 6.42
ATTTTCTTTTTTAAACGTACACATATTAAATATATA [XGTACX_site7773] | 6.99
AATAAATTCATGAATTGTACGTAATGATAACATGAA [XGTACX_site2591] | 6.57
AAAAAAAGGTAAAATTGTACATACGCACAAAAATAT [XGTACX_site2887] | 6.78
TGCACGCACAGACACACACACAACTAAAAAATAATG [CACACA_site7250] | 7.5
TAATATCGTATATGAGTGCAATATTTTAGATTTTGA | 9.08
AATATATCAAAAATGATGACATAAATATATTAATTT [GTGCAC_negctrl_site530] | 6.13
ATATTATTTATAAAAGTGCAAAAATCACTTCTTTTA [GTGCAC_site9656] | 7.77
TTTAAAAAGTTATGAAGTACATATATATATATATAT [XGTACX_site2188] | 9.33
ATTTCCTTGAATGTTGCATGCTGTATTTTAATTAAA [TGCATGCA_site280] | 7.73
AAAAAAAGGAAATTTACACACACATATAATATACAT [CACACA_site3297] | 6.95

Sequence | gcPBM binding intensity (ln)
TAGATTATTATACTAGTGCAAATTATTTAAGAAAAA | 9.87
TAAATTTTTCTAAGTGCATGTTAATTTTTCAATTTA [TGCATGCA_site906] | 7.99
AAAAAAAAAAAGTGCACACATAAAAATATGATCTAA [CACACA_site572] | 9.08
AAAGAGAAACAAAATTGTACATTATATTGTAGACGT [XGTACX_site976] | 6.69
TATATTTATAAGTGTACACATTATATAAATCCCTAT [CACACA_site6122] | 6.73
GAACAAAATGATAGAAGTACAAATATTTATTTTGTT [XGTACX_site7146] | 6.52
TGGGAACAATATATTTGTACTTAAATAAATAAAAAA [XGTACX_site6762] | 6.36
TTTTTTTTTTTTGTCACACACCTTCATAAGAAAAAA [CACACA_site4779] | 6.58
ATCATCACATAAGAAAATAGATAAAAAAAAAAAAAT [XGTACX_negctrl_site589] | 6.25
TAAATCCGCAGGCACACACACATATTAAGAAAAAAA [CACACA_site6061] | 6.48
GTACAGATATTGTACATACACACCTATATAAATATC [CACACA_site5739] | 6.51
ATGAAAAAACATAATTGTACAAAAGTTGGATTCGAT [XGTACX_site7732] | 7.56
ATTAAATGATTCATATGTACATAAATAAATAAATAT [XGTACX_site2249] | 6.8
TTTCTTTTTAAAGTGTATTAAAATTGAATAAAAAGA [XGTACX_negctrl_site408] | 6.71
TATTAATATTTACACACATGCGCACACATAAATAAA [TGCATGCA_site609] | 7.97
AAAAAAAAAAAACATACACACAAGAACAAAATATGA [CACACA_site3002] | 6.76
AGTCTTTTACATTGCACACACATTTCTTTCCTTTTG [CACACA_site2988] | 9.94
TAATTAGCATAATACACATGCATACATTTATATATA [TGCATGCA_site542] | 6.77
TACATATATCTATGTGTGCACTTATTTCCGGACAAA | 9.61
TATTTAAAAGATGAAAGTACACATTTAATTACATTT [XGTACX_site3781] | 6.17
ATGTGTATACTAAGAACACACAAGTTACTTGGTGTT [CACACA_site6864] | 6.41
TATATTTAACATACTTTTTTTTTTTTTTTTTTTTTT [CACACA_negctrl_site938] | 6.96
TAAGAAAAATATATATGTACACATATATATATATAT [XGTACX_site8542] | 9.25

Sequence | gcPBM binding intensity (ln)
AACTTTTATACGGATACACACAAAAAAAAATAAAAA [CACACA_site6547] | 6.61
TGTATGTTATATACAACACACAAAAAAAAACAAGTT [CACACA_site301] | 6.51
TATCTGTATTTGTATACACACAAATGTATTTATTTA [CACACA_site4830] | 6.68
TACAATATTTCGAGCTTGCACTTTTATTAAGTAAAT | 7.68
TATACAGACAGACACACACACATATATAAATATGTA [CACACA_site6912] | 6.69
ATTATTATTTTTAACTGTACATAGATATAGATATCC [XGTACX_site8714] | 6.47
TTTTTAAAATATTTAACACACAATTATAATGCATAA [CACACA_site3932] | 6.78
AGTAGTCTGGAGAAATGTACACAGTATCTGGTAGCT [XGTACX_site4871] | 6.28
AATATGTGTATAGATAGTACACATGCTGATAATATA [XGTACX_site5941] | 6.59
AAAATTTTGGAACGTGCACACATATGTAATATATAT [CACACA_site9004] | 9.19
ATGTCCTATATTAGTACACACATGAAAATATAAATA [CACACA_site7497] | 6.69
AACCATACACAAATAAACATAGACACAGATACCTCC [CACACA_negctrl_site598] | 6.63
AATATAAAAAAAAACAAAAAAAAAATTTTGGTTCAC [CACACA_negctrl_site1290] | 5.77
TTATTGTTATTTGTTTGTACATAATATAATATATTA [XGTACX_site6477] | 6.47
ACAATTAATCAAACAAGTACAAAATATATCCCTATT [XGTACX_site6223] | 6.35
TCCTATGATGATGATAGTACATATGAGTTCAAAAAA [XGTACX_site273] | 6.02
AATAATAAATAAATGTGTACTTAAAAATATTATATT [XGTACX_site3005] | 6.45
CAAAGTATTATGATTACACACATGTGCTTTTTTCTT [CACACA_site163] | 6.36
TTGTATCATATATTATGTACATATTGATTTATTACC [XGTACX_site12] | 6.41
TAAGTCATATAAATGTGTACATAAAAAAAAAAAATG [XGTACX_site1645] | 6.77
TTTTTTTTTTTTTTTTCACACATTGTACTTTTTTAT [CACACA_site5193] | 6.41
ATCATTTGCATACGCACACACACATAAAAAGAAAAA [CACACA_site355] | 8.44
TCTATCAAATTTGAAGGTACACATTTGAGATAATTA [XGTACX_site3797] | 6.41

Sequence | gcPBM binding intensity (ln)
TATATTTATTTATATACACACATAATAAAAAATATA [CACACA_site6527] | 6.49
TACTTATTGTGATACTTATATTATTTTATGATTAAA [XGTACX_negctrl_site353] | 6.29
TATTAATGATAAAAAAGTACATTATTATATGATATT [XGTACX_site4235] | 6.32
AGCTTGTAACAGTTTACACACTAATATTTATAAATT [CACACA_site6024] | 6.88
ATATTTTTTTTTTTATGTACTTATTTATAATTATTT [XGTACX_site5279] | 6.67
ATTATACAAATTGAGGTGCATGAAACAAAATATGAA | 8.66
CACCAAAATATATGTACATATGATAAATGTGAATAT [GTGCAC_negctrl_site83] | 7.06
CTTTTCTATTTTTTCGTGCACTATAAATATTTTAAT | 10.1
TTTTACAATATTTTGTGTACTTATATTATGAGCTTA [XGTACX_site3287] | 6.46
TAACTTTTTTTTTTTTTTTTTTAACTTTTATGTAAT [GTGCAC_negctrl_site156] | 6
AAAATTATCGTTATATGTACGCATCTTAATACGTAT [XGTACX_site4063] | 6.06
ATAATCCACAAGCACACACACACACCCATATATATA [CACACA_site1268] | 7.2
TATATATATATATATATATATATATATGTATATATG [XGTACX_negctrl_site242] | 9.49
AACTTTAAACCCTGAACACACACAAATACACCCAAA [CACACA_site7971] | 7.16
TTTTTTTTTTTTTTTGCACACATTTTAATTATTTTT [CACACA_site341] | 9.27
CTCAAAAAATATGAACGTACAAAATAAGTAATGACA [XGTACX_site590] | 7
AACTCATAGGAGTGTGCACACAAAAAATTAAAAAAA [CACACA_site8996] | 11
ATACATATTAATATGTGTACACATTTTTATTTTTTT [XGTACX_site930] | 6.75
AAAAAAAAAAAAAAAGGTACACAAAACGGTATTATT [XGTACX_site7064] | 6.38
TTTTTTTTTTTTGTCACACATATGGAATATATCTAT [CACACA_site5899] | 6.42
TTTGTCAACCAAAATTGTACAAATGTATTCCCAATA [XGTACX_site1350] | 6.18

Source: the supplement of paper PMC11417369
